# Assay results reported in publication PMC4336329 (PLoS ONE, 2015).
# About 14,000 (4.5%) of roughly 310,000 compounds showed an effect of 50% or more. The effect is printed as a negative number. Some of the results follow.
# Biological target: human ether-à-go-go-related gene (hERG) potassium channel (human, UniProt Q12809)
# Assay: primary screen, population patch clamp on CHO cells stably expressing hERG
# 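Also: peak tail current of the secondary pulse compared with the same well before compound.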
# Chain of human ether-à-go-go-related gene (hERG) potassium channel (Q12809 whole entry, looked up): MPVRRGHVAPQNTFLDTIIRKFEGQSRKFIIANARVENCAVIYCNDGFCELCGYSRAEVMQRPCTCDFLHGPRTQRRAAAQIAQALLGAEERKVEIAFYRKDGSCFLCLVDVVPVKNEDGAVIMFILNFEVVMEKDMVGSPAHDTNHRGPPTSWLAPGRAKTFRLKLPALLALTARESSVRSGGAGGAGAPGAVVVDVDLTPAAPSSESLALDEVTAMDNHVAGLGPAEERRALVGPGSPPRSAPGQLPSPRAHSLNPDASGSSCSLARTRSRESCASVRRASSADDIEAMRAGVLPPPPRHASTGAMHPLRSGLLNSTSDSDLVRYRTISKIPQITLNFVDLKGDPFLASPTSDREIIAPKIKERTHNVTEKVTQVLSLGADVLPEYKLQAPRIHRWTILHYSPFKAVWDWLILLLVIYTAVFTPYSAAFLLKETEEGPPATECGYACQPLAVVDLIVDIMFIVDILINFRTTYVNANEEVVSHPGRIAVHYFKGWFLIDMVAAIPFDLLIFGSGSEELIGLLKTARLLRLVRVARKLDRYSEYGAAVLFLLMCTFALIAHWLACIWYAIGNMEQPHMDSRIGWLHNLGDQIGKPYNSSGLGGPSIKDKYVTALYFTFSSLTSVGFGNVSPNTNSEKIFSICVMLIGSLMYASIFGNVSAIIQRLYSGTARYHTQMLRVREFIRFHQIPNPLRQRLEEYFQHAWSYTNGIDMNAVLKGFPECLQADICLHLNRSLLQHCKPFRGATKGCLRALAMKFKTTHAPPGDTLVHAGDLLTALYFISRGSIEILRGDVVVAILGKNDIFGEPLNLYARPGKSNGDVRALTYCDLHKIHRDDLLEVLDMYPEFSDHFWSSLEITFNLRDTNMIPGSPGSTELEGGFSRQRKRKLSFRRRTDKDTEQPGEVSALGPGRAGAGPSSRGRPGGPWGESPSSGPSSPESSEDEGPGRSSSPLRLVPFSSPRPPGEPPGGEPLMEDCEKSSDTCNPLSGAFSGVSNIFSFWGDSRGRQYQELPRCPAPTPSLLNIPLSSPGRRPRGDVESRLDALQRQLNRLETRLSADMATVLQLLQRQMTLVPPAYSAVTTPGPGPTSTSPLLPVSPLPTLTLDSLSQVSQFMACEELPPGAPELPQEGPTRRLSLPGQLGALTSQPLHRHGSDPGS
row,SMILES,"hERG current change (%, negative = inhibition) at 10uM [%]"
1,CC(C)(C)OC(=O)N1CCCC1C(=O)O (stereo not drawn),26.5
2,Cn1c(SCC(=O)Nc2ccc(N3CCOCC3)cc2)nnc1C1CC1,7.98
3,O=C(CCS(=O)(=O)c1ccccc1F)Nc1ccc(N2CCN(Cc3ccccc3)CC2)cc1,9.6
4,CC(=O)C1=C(C)NC(SCC(=O)c2ccc(F)cc2)=C(C#N)C1CC(C)C (stereo not drawn),16.3
5,CC(C)(O)C(=O)NN(Cc1ccccc1)c1ccccc1,16.2
6,CCO[C@H]1OC(C(=O)N2CCN(Cc3ccc4c(c3)OCO4)CC2)=C[C@@H](c2csc3ccccc23)[C@@H]1CCCO,13.1
7,CC(Cc1cccs1)NC(=O)Nc1ccc(Cl)c(Cl)c1 (stereo not drawn),19.8
8,O=C(C1=C(O)C(=O)N(CC2CCCO2)C1c1ccccc1[N+](=O)[O-])c1ccco1 (stereo not drawn),15.8
9,O=S(=O)(Nc1nc(-c2ccccc2)cs1)c1cccc(C(F)(F)F)c1,17.4
10,CCn1c(SC/C=C/c2ccccc2)nnc1-c1cnccn1,-14.7
11,CN(CC(=O)Nc1cccc(F)c1)CC(=O)Nc1cccc(S(=O)(=O)N2CCCCC2)c1,-19.6
12,COc1cc(C(=O)OCC(=O)N2CCN(C(C)=O)CC2)ccc1OCC(C)C,15.4
13,O=C(c1cc(COc2c(F)cccc2F)on1)N1CCCCCC1,4.46
14,CCOC(=O)CSc1nc2ccc(NC(C)=O)cc2s1,-0.523
15,CCCOc1cccc(OCC(=O)Nc2nc3ccccc3[nH]2)c1,17.4
16,CC(=O)Nc1ccc(NC(=O)C(C)Sc2nc3ccccc3c(=O)n2CC2CCCO2)cc1 (stereo not drawn),7.41
17,Cc1ccc(N2C(=O)NC(C(F)(F)F)(C(F)(F)F)C3=C2CC(C)(C)CC3=O)cc1,5.75
18,COc1ccc(-n2nnc3c(=O)n(CC(=O)Nc4cc(C)on4)cnc32)cc1,12.6
19,CCOC(=O)/C(C#N)=C1/SC(CCO)C(=O)N1c1ccccc1 (stereo not drawn),21.2
20,O=C(CSc1nnnn1C1CCCCC1)N1CCCC1,-2.5
21,N#C/C(=C\c1ccc(-c2ccc(Br)cc2)o1)C(=O)NCCc1c[nH]c2ccccc12,21
22,CC(C)=CC(=O)Nc1ccc(S(=O)(=O)Nc2ccccn2)cc1,-5.94

row,SMILES,"hERG current change (%, negative = inhibition) at 10uM [%]"
1,O=C(CN(C1CCCCC1)S(=O)(=O)c1ccc(F)cc1)NCCCO,1.65
2,Nc1ccc(-c2cc(-c3ccc(N)cc3)nc(-c3ccccc3)n2)cc1,11.8
3,CCc1ccccc1NC1=NCC(=O)N1Cc1ccc2c(c1)OCO2,-12.6
4,Cl.Nc1ccc2c(c1)oc1ccccc12,4.15
5,O=C(Cn1nnc(-c2ccccc2)n1)Nc1cccc(S(=O)(=O)N2CCOCC2)c1,-56.2
6,CCOC(=O)C1CCN(C(=O)CCc2nc3sc4c(c3c(=O)[nH]2)CCCC4)CC1,-2.9
7,CCOC(=O)c1ccc(NC(=O)CSc2nc3cccnc3n2C)cc1,1.32
8,C#CCN(Cc1ccco1)C(=O)c1ccc(OC2CCN(Cc3ccccn3)CC2)cc1,-66.9
9,CCOC(=O)N1CCN(C(=O)CSc2nnc3[nH]c(=O)c(C)c(C)n23)CC1,3.06
10,O=C(COC(=O)CCc1c[nH]c2ccccc12)Nc1ccccc1C(F)(F)F,-5.09
11,COc1cc(C(=O)Nc2ccc3c(c2)OCCO3)ccc1-n1cnnn1,22.4
12,CC1CCN(CCCNC(=O)CN2CCN(Cc3ccc(Cl)cc3)C2=O)CC1,-55.2
13,Cc1cc(-c2ccc(C)c(S(=O)(=O)NCCc3ccco3)c2)on1,-34.1
14,COc1ccc(OC)c(-c2cc(C(=O)Nc3ccc(F)cc3F)no2)c1,5.05
15,O=C(/C=C/c1cccs1)Nc1ccncc1,12.8
16,O=C(COC(=O)c1cc[n+]([O-])cc1)Nc1ccc(Br)cc1,-5.86
17,Cc1cc(NS(=O)(=O)c2ccc(NC(=S)NC(=O)c3ccc(C(C)(C)C)cc3)cc2)no1,9.58
18,CCc1ccc(-c2cc(C)no2)cc1S(=O)(=O)NCCCN1CCN(c2ccccc2)CC1,1.91
19,CCc1ccccc1NC(=O)N[C@H](C(=O)O)C(C)C,11.4
20,CCOc1ccccc1NC(=O)CSc1nnc(Cc2cccn2C)n1-c1ccc(F)cc1,-32.5
21,COc1cc(C2C(C#N)=C(N)OC3=C2C(=O)CC(C)(C)C3)ccc1OCCN1CCOCC1 (stereo not drawn),13.1
22,CCN1CCN(CC(O)COC(c2ccccc2)c2ccccc2C)CC1.O=C(O)C(=O)O (stereo not drawn),-10.6

row,SMILES,"hERG current change (%, negative = inhibition) at 10uM [%]"
1,C#CCOC(=O)C[N+](C)(C)C/C=C/c1ccccc1.[Cl-],10.4
2,CC(O)CN(Cc1ccc(Cl)cc1)CC(C)O (stereo not drawn),7.61
3,O=C(N/C(=C/c1cccs1)c1nc2ccccc2[nH]1)c1ccccc1,-3.24
4,CCCCOCCCn1cnc2c([nH]c3cc(OC)ccc32)c1=O,-17.2
5,COc1ccccc1C(=O)NCC(=O)OCC(=O)Nc1ccc2[nH]c(=O)[nH]c2c1,-0.79
6,O=C(COc1cccc(F)c1)NNC(=O)c1cccc(-n2cccc2)c1,5.76
7,Cc1oc(C(C)(C)C)cc1C(=O)Nc1cccc(C(=O)O)c1,2.6
8,CCN1C(=O)c2ccc(C(=O)Nc3ccc4c(c3)OCO4)cc2C1=O,8.91
9,COc1ccc(CCC(=O)Nc2cc(S(C)(=O)=O)ccc2Cl)cc1,-8.32
10,Nn1c(COc2ccccc2F)nnc1SCC(=O)NC1CCCCC1,0.335
11,Cc1nc2ccc(NC(=O)[C@@H](NC(=O)c3c(F)cccc3F)C(C)C)cc2s1,1.84
12,O=C(NCCCc1ccccc1)C(=O)NCC1OCCN1S(=O)(=O)c1ccccc1 (stereo not drawn),-25.1
13,OCC1(Cc2cccc(Cl)c2)CCCN(Cc2cn[nH]c2C2CCCCC2)C1 (stereo not drawn),-31.4
14,CC(=O)Oc1ccc(OC(C)=O)c(SCCCCC[NH+]2CCOCC2)c1.[Cl-],-0.904
15,Cc1ccccc1N1CCN(C2CCCN(C(=O)c3ccccn3)C2)CC1 (stereo not drawn),-9.78
16,Cc1ccc(C(=O)OCC(=O)NCc2ccccc2)cc1S(=O)(=O)N1CCCCC1,-26.5
17,CC(C)(C)OC(=O)NCCCC(CCCNC(=O)OC(C)(C)C)C(=O)O,3.55
18,CC(C)(C)C(=O)c1no[n+]([O-])c1/C(=N/O)C(C)(C)C,0.66
19,CSc1ccccc1NC(=O)C1CCCN(S(C)(=O)=O)C1 (stereo not drawn),21.9
20,CN1CCN(S(=O)(=O)c2cccc(S(=O)(=O)c3ccc(Cl)cc3)c2)CC1,-31.7
21,COC(=O)CSc1nnc(Cc2ccccc2)n1-c1ccc(C)cc1,-23
22,NC(=O)C1CCN(C(=O)C2CCN(S(=O)(=O)c3ccccc3)CC2)CC1,9.79

row,SMILES,"hERG current change (%, negative = inhibition) at 10uM [%]"
1,COC(=O)CCNCCSc1nnc(-c2ccco2)n1Cc1ccccc1.O=C(O)C(=O)O,-64.5
2,Cc1cc(C)cc(NC(=O)C(OC(=O)c2ccc([N+](=O)[O-])o2)c2ccccc2)c1 (stereo not drawn),-1.24
3,CCN(CCCNC(=O)CC(C(=O)N1CCc2ccccc21)n1ccnc1)c1ccccc1 (stereo not drawn),-45.6
4,CSc1ccc(CN(C)C(=O)CNC(=O)c2sc3ccccc3c2Cl)cc1,13.2
5,Cc1ccc(C(=O)NCC(=O)Nc2cccc(C(F)(F)F)c2)cc1,8.49
6,Cc1[nH]c(=O)c(C(=O)c2cc(Cl)ccc2O)cc1C(=O)O,20.3
7,O=C(NCCc1cccs1)C1CC(c2ccc([N+](=O)[O-])cc2)=NO1 (stereo not drawn),-49.9
8,Cc1ccc(NC(=O)C2CC(=O)Nc3nc4ccccc4n32)c(C)c1 (stereo not drawn),5.39
9,CCc1ccc(-c2nc(CS(=O)CC(=O)NCc3cccnc3)c(C)o2)cc1 (stereo not drawn),-22.7
10,Cc1ccc(COc2ccccc2C(=S)N2CCCC2)cc1,19
11,Cc1occc1C(=O)N1CCCC(N2CCN(c3ccccc3F)CC2)C1 (stereo not drawn),4.38
12,COc1cccc(-n2c(SCC(=O)NCC3CCCO3)nc3c(c2=O)SCC3)c1 (stereo not drawn),6.13
13,COC(=O)CSc1nnc(COc2ccc([N+](=O)[O-])cc2)n1C,-47.6
14,Cn1c(=S)n(/N=C/c2ccc3c(c2)OCO3)c2ccccc21,13.5
15,CN(C)c1ccc(-n2cccc2/C=N/n2cnnc2)cc1,15.5
16,Cc1ccc(N2C(=O)NC(=O)C(CCc3ccccn3)(Cc3ccc(F)cc3)C2=O)cc1 (stereo not drawn),12.9
17,C=CCC1Cc2c(cccc2[N+](=O)[O-])C(CC=C)N1 (stereo not drawn),-8.35
18,O=C(NC1=NCCS1)C12CC3CC(CC(C3)C1)C2,9.94
19,CCC1CCCCN1C(=O)CCC(=O)Nc1nnc(C(F)(F)F)s1 (stereo not drawn),5.01
20,CC(C)(C)OC(=O)N1Cc2ccccc2C[C@H]1C(=O)O,13.7
21,Cc1ccc(C(=O)NNC(=O)C2CSC3(C)CCC(=O)N23)cc1 (stereo not drawn),24.9
